Measured values as given in the supplement of paper PMC4967469.
IC50 is the fitted dose that halves viability relative to control wells, and lower means more sensitive; a limit (>, <) means that the fit lies beyond the doses tested. For AUC the same curve is integrated over the 256-fold range of doses and scaled to a fraction: 1 means no effect, lower means more sensitive. For some of these results: Where the top dose is marked as inferred, it was calculated from the reported fits.

Experiments:
Assay in all cases: Viability of human cancer cell lines after 72 h of drug (GDSC screen)
Bexarotene = compound: C=C(c1ccc(C(=O)O)cc1)c1cc2c(cc1C)C(C)(C)CCC2(C)C [Bexarotene]; details: top dose 8 µM
Experimental: (§1)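 Human cancer cell lines in 384-well plates, medium with 10% serum, drug for 72 h over a 256-fold dose range (nine 2-fold or five 4-fold steps up to the top dose). Adherent lines were fixed and stained with the nucleic acid dye Syto60, suspension lines read with resazurin; signal relative to control wells, capped at 0 and 100%. One two-parameter sigmoid per drug and line, fitted in a mixed model over all curves with the slope shared within a line.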

NPK76-II-72-1 = compound: COc1cc(C(=O)NC2CCN(C)CC2)ccc1Nc1ncc2c(n1)N(C1CCCC1)C(C)CC(=O)N2C [NPK76-II-72-1]; details: top dose 10.24 µM; top dose inferred
Experimental: as §1

Etoposide = compound: COc1cc([C@@H]2c3cc4c(cc3[C@@H](O[C@@H]3O[C@@H]5CO[C@@H](C)O[C@H]5[C@H](O)[C@H]3O)[C@H]3COC(=O)[C@H]23)OCO4)cc(OC)c1O [Etoposide]; details: top dose 16 µM
Experimental: as §1

YK 4-279 = compound: COc1ccc(C(=O)CC2(O)C(=O)Nc3c(Cl)ccc(Cl)c32)cc1 [YK 4-279]; details: top dose 10 µM
Experimental: as §1

BMS-345541 = compound: Cc1ccc2nc(NCCN)c3ncc(C)n3c2c1 [BMS-345541]; details: top dose 16 µM
Experimental: as §1

AZD7762 = compound: NC(=O)Nc1cc(-c2cccc(F)c2)sc1C(=O)N[C@H]1CCCNC1 [AZD7762]; details: top dose 2 µM
Experimental: as §1

GSK-650394 = compound: O=C(O)c1ccc(-c2c[nH]c3ncc(-c4ccccc4)cc23)cc1C1CCCC1 [GSK-650394]; details: top dose 16 µM; top dose inferred
Experimental: as §1

XAV 939 = compound: Oc1nc(-c2ccc(C(F)(F)F)cc2)nc2c1CSCC2 [XAV 939]; details: top dose 5 µM; top dose inferred
Experimental: as §1

## SK-OV-3 (ovary, adherent)
Bexarotene
  AUC: 0.871
  IC50: > 8 µM
NPK76-II-72-1
  AUC: 0.797
  IC50: 6.32 µM
Etoposide
  AUC: 0.816
  IC50: 11.9 µM
YK 4-279
  AUC: 0.73
  IC50: 3.4 µM
BMS-345541
  AUC: 0.749
  IC50: 6.37 µM
AZD7762
  AUC: 0.666
  IC50: 0.41 µM
GSK-650394
  AUC: 0.875
  IC50: > 16 µM
XAV 939
  AUC: 0.93
  IC50: > 5 µM

## SK-PN-DW (Ewing sarcoma, adherent)
Bexarotene
  AUC: 0.976
  IC50: > 8 µM
NPK76-II-72-1
  AUC: 0.754
  IC50: 3.55 µM
Etoposide
  AUC: 0.351
  IC50: 0.379 µM
YK 4-279
  AUC: 0.716
  IC50: 2.63 µM
BMS-345541
  AUC: 0.881
  IC50: > 16 µM
AZD7762
  AUC: 0.542
  IC50: 0.164 µM
GSK-650394
  AUC: 0.81
  IC50: 8.85 µM
XAV 939
  AUC: 0.981
  IC50: > 5 µM

## SK-UT-1 (soft tissue, adherent)
Bexarotene
  AUC: 0.919
  IC50: > 8 µM
NPK76-II-72-1
  AUC: 0.983
  IC50: > 10.2 µM
Etoposide
  AUC: 0.1
  IC50: < 0.0625 µM
YK 4-279
  AUC: 0.644
  IC50: 1.5 µM
BMS-345541
  AUC: 0.899
  IC50: > 16 µM
AZD7762
  AUC: 0.596
  IC50: 0.224 µM
GSK-650394
  AUC: 0.654
  IC50: 2.56 µM
XAV 939
  AUC: 0.938
  IC50: > 5 µM

## SKG-IIIa (cervix, adherent)
Bexarotene
  AUC: 0.946
  IC50: > 8 µM
NPK76-II-72-1
  AUC: 0.98
  IC50: > 10.2 µM
Etoposide
  AUC: 0.876
  IC50: > 16 µM
YK 4-279
  AUC: 0.842
  IC50: > 10 µM
BMS-345541
  AUC: 0.976
  IC50: > 16 µM
AZD7762
  AUC: 0.737
  IC50: 0.767 µM
GSK-650394
  AUC: 0.966
  IC50: > 16 µM
XAV 939
  AUC: 0.959
  IC50: > 5 µM

## SKN-3 (head and neck, adherent)
Bexarotene
  AUC: 0.982
  IC50: > 8 µM
NPK76-II-72-1
  AUC: 0.95
  IC50: > 10.2 µM
Etoposide
  AUC: 0.857
  IC50: > 16 µM
YK 4-279
  AUC: 0.805
  IC50: 6.16 µM
BMS-345541
  AUC: 0.914
  IC50: > 16 µM
AZD7762
  AUC: 0.565
  IC50: 0.194 µM
GSK-650394
  AUC: 0.983
  IC50: > 16 µM
XAV 939
  AUC: 0.937
  IC50: > 5 µM

## SLVL (B-cell lymphoma, suspension)
Bexarotene
  AUC: 0.981
  IC50: > 8 µM
NPK76-II-72-1
  AUC: 0.735
  IC50: 3.13 µM
Etoposide
  AUC: 0.588
  IC50: 1.77 µM
YK 4-279
  AUC: 0.9
  IC50: > 10 µM
BMS-345541
  AUC: 0.571
  IC50: 1.58 µM
AZD7762
  AUC: 0.747
  IC50: 0.672 µM
GSK-650394
  AUC: 0.952
  IC50: > 16 µM
XAV 939
  AUC: 0.976
  IC50: > 5 µM

## SNB75 (glioma, adherent)
Bexarotene
  AUC: 0.732
  IC50: 3.17 µM
NPK76-II-72-1
  AUC: 0.976
  IC50: > 10.2 µM
Etoposide
  AUC: 0.786
  IC50: 10.7 µM
YK 4-279
  AUC: 0.702
  IC50: 3.05 µM
BMS-345541
  AUC: 0.866
  IC50: > 16 µM
AZD7762
  AUC: 0.833
  IC50: > 2 µM
GSK-650394
  AUC: 0.935
  IC50: > 16 µM
XAV 939
  AUC: 0.949
  IC50: > 5 µM

## SNG-M (endometrium, adherent)
Bexarotene
  AUC: 0.89
  IC50: > 8 µM
NPK76-II-72-1
  AUC: 0.656
  IC50: 1.71 µM
Etoposide
  AUC: 0.512
  IC50: 1.08 µM
YK 4-279
  AUC: 0.597
  IC50: 1.15 µM
BMS-345541
  AUC: 0.907
  IC50: > 16 µM
AZD7762
  AUC: 0.47
  IC50: 0.104 µM
GSK-650394
  AUC: 0.594
XAV 939
  AUC: 0.849
  IC50: 3.64 µM

## SNU-423 (liver, adherent)
Bexarotene
  AUC: 0.833
  IC50: 6.44 µM
NPK76-II-72-1
  AUC: 0.859
  IC50: > 10.2 µM
Etoposide
  AUC: 0.598
  IC50: 1.95 µM
YK 4-279
  AUC: 0.817
  IC50: 6.87 µM
BMS-345541
  AUC: 0.798
  IC50: 9.11 µM
AZD7762
  AUC: 0.73
  IC50: 0.64 µM
GSK-650394
  AUC: 0.911
  IC50: > 16 µM
XAV 939
  AUC: 0.88
  IC50: > 5 µM

## SNU-449 (liver, adherent)
Bexarotene
  AUC: 0.986
  IC50: > 8 µM
NPK76-II-72-1
  AUC: 0.98
  IC50: > 10.2 µM
Etoposide
  AUC: 0.876
  IC50: > 16 µM
YK 4-279
  AUC: 0.877
  IC50: > 10 µM
BMS-345541
  AUC: 0.853
  IC50: 14.4 µM
AZD7762
  AUC: 0.923
  IC50: > 2 µM
GSK-650394
  AUC: 0.838
  IC50: 12.3 µM
XAV 939
  AUC: 0.94
  IC50: > 5 µM

## SNU-C1 (large intestine, suspension)
Bexarotene
  AUC: 0.944
  IC50: > 8 µM
NPK76-II-72-1
  AUC: 0.98
  IC50: > 10.2 µM
Etoposide
  AUC: 0.951
  IC50: > 16 µM
YK 4-279
  AUC: 0.932
  IC50: > 10 µM
BMS-345541
  AUC: 0.875
  IC50: > 16 µM
AZD7762
  AUC: 0.654
  IC50: 0.408 µM
GSK-650394
  AUC: 0.969
  IC50: > 16 µM
XAV 939
  AUC: 0.976
  IC50: > 5 µM

## SR (lymphoid neoplasm, suspension)
Bexarotene
  AUC: 0.978
  IC50: > 8 µM
NPK76-II-72-1
  AUC: 0.529
  IC50: 0.763 µM
Etoposide
  AUC: 0.369
  IC50: 0.453 µM
YK 4-279
  AUC: 0.481
  IC50: 0.557 µM
BMS-345541
  AUC: 0.86
  IC50: 11.3 µM
AZD7762
  AUC: 0.481
  IC50: 0.111 µM
GSK-650394
  AUC: 0.896
  IC50: > 16 µM
XAV 939
  AUC: 0.975
  IC50: > 5 µM

## ST486 (Burkitt lymphoma, suspension)
Bexarotene
  AUC: 0.882
  IC50: 6.79 µM
NPK76-II-72-1
  AUC: 0.723
  IC50: 2.51 µM
Etoposide
  AUC: 0.633
  IC50: 2.22 µM
YK 4-279
  AUC: 0.721
  IC50: 2.42 µM
BMS-345541
  AUC: 0.689
  IC50: 3.15 µM
AZD7762
  AUC: 0.684
  IC50: 0.381 µM
GSK-650394
  AUC: 0.689
  IC50: 3.14 µM
XAV 939
  AUC: 0.975
  IC50: > 5 µM

## SU8686 (pancreas, adherent)
Bexarotene
  AUC: 0.942
  IC50: > 8 µM
NPK76-II-72-1
  AUC: 0.967
  IC50: > 10.2 µM
Etoposide
  AUC: 0.759
  IC50: 6.26 µM
YK 4-279
  AUC: 0.852
  IC50: 9.22 µM
BMS-345541
  AUC: 0.94
  IC50: > 16 µM
AZD7762
  AUC: 0.665
  IC50: 0.382 µM
GSK-650394
  AUC: 0.804
  IC50: 9.18 µM
XAV 939
  AUC: 0.95
  IC50: > 5 µM

## SU-DHL-16 (B-cell lymphoma, suspension)
Bexarotene
  AUC: 0.951
  IC50: > 8 µM
NPK76-II-72-1
  AUC: 0.634
  IC50: 1.35 µM
Etoposide
  AUC: 0.349
  IC50: 0.43 µM
YK 4-279
  AUC: 0.722
  IC50: 2.16 µM
BMS-345541
  AUC: 0.914
  IC50: 11.7 µM
AZD7762
  AUC: 0.506
  IC50: 0.13 µM
GSK-650394
  AUC: 0.604
  IC50: 1.78 µM
XAV 939
  AUC: 0.993
  IC50: > 5 µM

## SUIT-2 (pancreas, adherent)
Bexarotene
  AUC: 0.957
  IC50: > 8 µM
NPK76-II-72-1
  AUC: 0.83
  IC50: 6.88 µM
Etoposide
  AUC: 0.525
  IC50: 1.17 µM
YK 4-279
  AUC: 0.805
  IC50: 5.35 µM
BMS-345541
  AUC: 0.883
  IC50: > 16 µM
AZD7762
  AUC: 0.771
  IC50: 0.805 µM
GSK-650394
  AUC: 0.803
  IC50: 8.4 µM
XAV 939
  AUC: 0.985
  IC50: > 5 µM

## SUP-HD1 (Hodgkin lymphoma, suspension)
Bexarotene
  AUC: 0.962
  IC50: > 8 µM
NPK76-II-72-1
  AUC: 0.828
  IC50: 5.93 µM
Etoposide
  AUC: 0.601
  IC50: 1.87 µM
YK 4-279
  AUC: 0.752
  IC50: 3.17 µM
BMS-345541
  AUC: 0.87
  IC50: 13.7 µM
AZD7762
  AUC: 0.681
  IC50: 0.39 µM
GSK-650394
  AUC: 0.938
  IC50: > 16 µM
XAV 939
  AUC: 0.98
  IC50: > 5 µM
